# The other results are listed elsewhere or left out.
# How the values were obtained:
# [1] = test system: HSkMC (human skeletal muscle cells); experiment: cytotoxicity call (relative viability < 0.9); conditions: 10 µM
# [2] = test system: HepG2; experiment: cytotoxicity call (relative viability < 0.9); conditions: 10 µM
# [3] = test system: S. aureus RN4220; experiment: growth inhibition call (relative growth <= 0.2); conditions: 50 µM
SMILES,cytotoxicity call [1],cytotoxicity call [2],growth inhibition call [3]
COCC(=O)N1CC(=O)N2[C@H](CO)[C@@H](c3ccc(C#Cc4cccnc4)cc3)[C@H]2C1,inactive,inactive,inactive
COc1ccc2c3c([nH]c2c1)[C@H](CO)N(C[C@]13CCN(CC1)CC1CCOCC1)S(=O)(=O)c1cn(cn1)C,inactive,inactive,inactive
COc1ccc(S(=O)(=O)Nc2ccc3c(c2)C(=O)N([C@H](C)CO)C[C@@H](C)[C@@H](CN(C)C(=O)Nc2cccc4ccccc24)OCCCC[C@@H](C)O3)cc1,inactive,inactive,inactive
C[C@H]1CN([C@@H](C)CO)C(=O)c2cccc(NC(=O)Nc3ccc(C(F)(F)F)cc3)c2O[C@@H]1CN(C)Cc1ccncc1,inactive,inactive,inactive
O=C(C[C@@H]1CC=CC[C@H](NC(=O)OCC2c3ccccc3-c3ccccc32)C(=O)O[C@H](c2ccccc2)CNC1=O)N[C@H](CO)Cc1ccccc1,active,inactive,inactive
COc1ccc(S(=O)(=O)Nc2ccc3c(c2)C(=O)N([C@H](C)CO)C[C@H](C)[C@@H](CN(C)S(=O)(=O)c2ccc(Cl)cc2)OCCCC[C@@H](C)O3)cc1,inactive,active,inactive
C[C@H]1CN([C@@H](C)CO)C(=O)c2cc(C#Cc3cccc(F)c3)cnc2O[C@H]1CN(C)CC1CCOCC1,inactive,inactive,inactive
C[C@H](CO)N1C[C@H](C)[C@@H](CN(C)CC2CCCCC2)Oc2ccc(NC(=O)CCCCCC(=O)Nc3ccccc3N)cc2C1=O,inactive,active,inactive
COc1ccc(NC(=O)N(C)C[C@H]2OCCCC[C@@H](C)Oc3ccc(NC(=O)NC4CCCCC4)cc3C(=O)N([C@@H](C)CO)C[C@H]2C)cc1,inactive,inactive,inactive
C=CCOC(=O)[C@@H]1[C@H]2C(=O)O[C@H](c3ccccc3)[C@H](c3ccccc3)N2[C@H](c2ccc(OCCOC(=O)[C@@H]3C[C@@H]4C(=O)N[C@@H](CCCCNC(C)=O)C(=O)N4[C@@H]3c3ccc(O)cc3)cc2)[C@@]12C(=O)Nc1ccc(I)cc12,inactive,inactive,inactive
COc1ccc(-c2coc3cc(OC)ccc3c2=O)cc1,inactive,inactive,inactive
C[C@H]1CN([C@@H](C)CO)C(=O)c2cc(NS(=O)(=O)c3cccs3)ccc2O[C@@H]1CN(C)Cc1ccc(-c2ccccc2)cc1,inactive,inactive,inactive
C[C@@H]1CN([C@H](C)CO)C(=O)c2cccc(NC(=O)CCCCCC(=O)Nc3ccccc3N)c2O[C@H]1CN(C)Cc1ccc(-c2ccccc2)cc1,inactive,inactive,inactive
CC(C)N1C[C@H](C)[C@@H](CN(C)Cc2ccc(Cl)cc2)Oc2c(C(=O)Nc3ccncc3)cccc2C1=O,inactive,inactive,inactive
COc1ccc2c(=O)c(OC)c(-c3ccccc3)oc2c1,inactive,inactive,inactive
COc1ccccc1S(=O)(=O)N(C)C[C@@H]1OCc2cnnn2CCCC(=O)N([C@H](C)CO)C[C@H]1C,inactive,inactive,inactive
COc1ccc(S(=O)(=O)N(C)C[C@H]2Oc3ccc(NC(=O)CCCN(C)C)cc3CC(=O)N([C@H](C)CO)C[C@@H]2C)cc1,inactive,inactive,inactive
C[C@@H]1CN([C@@H](C)CO)C(=O)c2cccc(NC(=O)CCCCCC(=O)Nc3ccccc3N)c2O[C@H]1CN(C)Cc1ccc(C(F)(F)F)cc1,inactive,inactive,inactive
C=CCOC(=O)[C@@H]1[C@H]2C(=O)O[C@H](c3ccccc3)[C@H](c3ccccc3)N2[C@H](c2ccc(OCCOC(=O)[C@H]3C[C@H]4C(=O)NCC(=O)N4[C@H]3c3ccc(O)cc3)cc2)[C@@]12C(=O)Nc1ccc(I)cc12,inactive,inactive,inactive
CCCNC(=O)N1C[C@H](O)COC[C@H]2O[C@@H](CC(=O)N3CCOCC3)CC[C@@H]21,inactive,inactive,inactive
C[C@H](CO)N1C[C@H](C)[C@@H](CN(C)C(=O)Cc2ccccn2)Oc2cc(-c3cccc(C(=O)N(C)C)c3)ccc2S1(=O)=O,inactive,inactive,inactive
C=CC[C@H](CC(=O)N(CCO)Cc1ccccc1)C(=O)N[C@@H](COC(=O)[C@@H](CC=C)CC(=O)OC(C)(C)C)Cc1c[nH]c2ccccc12,inactive,inactive,inactive
C[C@@H]1CCCCO[C@H](CN(C)C(=O)NC2CCCCC2)[C@@H](C)CN([C@H](C)CO)C(=O)c2cc(NC(=O)C3CCCCC3)ccc2O1,inactive,inactive,inactive

# Reference: the antibiotic and cytotoxicity screens of Wong et al. (2023)
